Data: patent US20250188167A1

target: human B7-H3 (human), Q5ZPR3; test: cell-based or functional assay
Sequence (Q5ZPR3 29-534): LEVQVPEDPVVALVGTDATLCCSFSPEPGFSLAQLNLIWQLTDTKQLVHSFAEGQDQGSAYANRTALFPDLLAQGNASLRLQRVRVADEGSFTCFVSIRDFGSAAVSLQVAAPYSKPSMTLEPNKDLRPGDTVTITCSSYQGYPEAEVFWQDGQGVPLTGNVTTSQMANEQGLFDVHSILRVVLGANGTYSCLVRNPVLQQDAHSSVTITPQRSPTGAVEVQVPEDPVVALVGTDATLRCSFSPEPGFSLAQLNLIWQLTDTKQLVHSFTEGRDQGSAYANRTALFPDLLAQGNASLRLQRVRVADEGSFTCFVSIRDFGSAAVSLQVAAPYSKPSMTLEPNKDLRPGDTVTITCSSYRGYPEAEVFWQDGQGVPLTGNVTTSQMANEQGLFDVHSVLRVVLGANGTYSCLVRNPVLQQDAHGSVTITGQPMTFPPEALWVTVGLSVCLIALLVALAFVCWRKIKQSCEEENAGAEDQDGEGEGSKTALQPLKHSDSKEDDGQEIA

| ADCC % Relative activity (EC50 of positive control MGA-271 / EC50 of sample), plate 02 [%] | ADCC EC50 (% target cell lysis, LDH; NK92/CD16a-VV effector cells), plate 02 [µg/mL] | CDC % Relative activity (EC50 of positive control DS-5573a / EC50 of sample) [%] | CDC EC50 (% target cell lysis, Cell Titer-Glo) [µg/mL] | ADCC % Relative activity (EC50 of positive control MGA-271 / EC50 of sample), plate 01 [%] | ADCC EC50 (% target cell lysis, LDH; NK92/CD16a-VV effector cells), plate 01 [µg/mL] | Binder |
| --- | --- | --- | --- | --- | --- | --- |
|  |  | 216 | 0.319 | 1480 | 0.00266 | 38F11B2-hIgG1 (antibody) heavy: QIQLVQSGPELKKPGETVKISCKASGYTFIDYGMNWVKQAPGKGLKWMGWINIYSGVPTYADDFKGRFAFSLETSANTAYLQINNLKNEDTATYFCARDDGYHYTMNYWGQGTSVTVSS[human IgG1 constant region omitted] light: DIVMTQTPLSLPVSLGDQASISCRSSQSLVHSNGITYLHWYLQKSGQSPKLLIYKVSNRFSGVPDRFSGSGSGTAFTLKISRVEAEDLGVYFCSQSTHVPWTFGGGTKLEIKRTVAAPSVFIFPPSDEQLKSGTASVVCLLNNFYPREAKVQWKVDNALQSGNSQESVTEQDSKDSTYSLSSTLTLSKADYEKHKVYACEVTHQGLSSPVTKSFNRGEC |
| 1200 | 0.00368 | 275 | 0.251 |  |  | 47C7E3-hIgG1 (antibody) heavy: QIQLVQSGPELKKPGETVKISCKASGYTFTNFGMNWVKQAPGKGLKWMGWIYTPSGVPIYADDFKGRFAVSLETSASTAYLQINNLKNEDTATYFCARDDGYYYTMDYWGQGTSVTVSS[human IgG1 constant region omitted] light: DDVMTQTPLSLPVSLGDHASISCRSSQSLVHSNGDTYLHWYLQKPGQSPKLLIYKVSNRFSGVPDRFSGSGSGTDFTLKISRVEAEDLGVYFCSQSTHVPWTFGGGTKLEIKRTVAAPSVFIFPPSDEQLKSGTASVVCLLNNFYPREAKVQWKVDNALQSGNSQESVTEQDSKDSTYSLSSTLTLSKADYEKHKVYACEVTHQGLSSPVTKSFNRGEC |
| 2740 | 0.00161 | 567 | 0.122 |  |  | 43H11G12-hIgG1 (antibody) heavy: QIQLVQSGPELKKPGETVKISCKASGYNFRDFGMNWVKQAPGKGLKWMGWLNSYSGVPTYADDFKGRFVLSLETSASTAYLQINNLINEDTATYFCGRDDGYNYTMNYWGQGTSVTVSS[human IgG1 constant region omitted] light: DVVMTQAPLSLPVSLGDQASISCRSSQSLVHSNGITYLHWYLQRAGQSPQLLIYKVSNRFSGVPDRFSGSGSGTDFTLKISRVEAEDLGVYFCSQSTHVPWTFGGGTKLEIKRTVAAPSVFIFPPSDEQLKSGTASVVCLLNNFYPREAKVQWKVDNALQSGNSQESVTEQDSKDSTYSLSSTLTLSKADYEKHKVYACEVTHQGLSSPVTKSFNRGEC |

Second part, the binder before the results:

| Binder | ADCC % Relative activity (EC50 of positive control MGA-271 / EC50 of sample), plate 02 [%] | ADCC EC50 (% target cell lysis, LDH; NK92/CD16a-VV effector cells), plate 02 [µg/mL] | CDC % Relative activity (EC50 of positive control DS-5573a / EC50 of sample) [%] | CDC EC50 (% target cell lysis, Cell Titer-Glo) [µg/mL] | ADCC % Relative activity (EC50 of positive control MGA-271 / EC50 of sample), plate 01 [%] | ADCC EC50 (% target cell lysis, LDH; NK92/CD16a-VV effector cells), plate 01 [µg/mL] |
| --- | --- | --- | --- | --- | --- | --- |
| 31H11B1-hIgG1 (antibody) heavy: QVQLQQPGAELGKPGTSVKLSCKASGYTFTSYWMHWVKQRPGQGLEWIGHINPNSGSTNQNAKFKNKATLTVDESSSTAYMQLSTLTSEDSAVYYCTRSGSNYRRNYFDYWGQGTTLTVSS[human IgG1 constant region omitted] light: DIQMTQSSSYLSVSLGGRVTITCKASDHINNWLAWYQQKPGNAPRLLISGATSLETGVPSRFSGSGSGKDYTLSITSLQTEDVATYYCQQYWSTPLTFGAGTKLELKRTVAAPSVFIFPPSDEQLKSGTASVVCLLNNFYPREAKVQWKVDNALQSGNSQESVTEQDSKDSTYSLSSTLTLSKADYEKHKVYACEVTHQGLSSPVTKSFNRGEC | 1360 | 0.00325 | 176 | 0.393 |  |  |
| 12C9F1B5-hIgG1 (antibody) heavy: QGQIQLVQSGPELKKPGETVKISCKASGFTNYGMNWVKQAPGKGLKWMGWINPYSGVPTYADDFKGRFAFSLETSASTAYLQINNLKNEDTATYFCARDDGFHYTMDYWGQGTSVTVSS[human IgG1 constant region omitted] light: DVVLTQTPLSLPVSLGDQASISCRSSQNLVHSNGITYLHWYLQKPGQSPKLLIYKVSNRFSGVPDRFSGSGSGTDFTLTISRVEAEDLGVYFCSQSTLVPWTFGGGTKLEIKRTVAAPSVFIFPPSDEQLKSGTASVVCLLNNFYPREAKVQWKVDNALQSGNSQESVTEQDSKDSTYSLSSTLTLSKADYEKHKVYACEVTHQGLSSPVTKSFNRGEC |  |  | 230 | 0.299 | 1520 | 0.00259 |
| 37D11F5B8-hIgG1 (antibody) heavy: QIQLVQSGPELKKPGETVKISCKASGDTFRNNGMNWVKQAPGKGLKWMGWINPYSGVPTYADDFKGRFAFSLETSASTAFLQINNLKNEDTATYFCARDDGYHYTMDFWGLGTSVTVSS[human IgG1 constant region omitted] light: DVVMTQTPLSLPVSLGDQASISCRSSQSLVHSNGITYLHWYLQKPGQSPKLLTYKVSHRFSGVPDRFSGSGSGTDFTLKISRVEAEDLGVYFCSQSTHVPWTFGGGTKLEIKRTVAAPSVFIFPPSDEQLKSGTASVVCLLNNFYPREAKVQWKVDNALQSGNSQESVTEQDSKDSTYSLSSTLTLSKADYEKHKVYACEVTHQGLSSPVTKSFNRGEC |  |  | 258 | 0.267 | 1070 | 0.00368 |
| 38D6A4-hIgG1 (antibody) heavy: QIQLVQSGPELKKPGEAVKISCKASGSTFTDFGMNWVRQAPGKGLKWMGWINPYSGVPTYADEFKGRFVFSLETSARVAYMQINDLKNEDTATYFCARDDGYHYTMDYWGQGTSVTVSS[human IgG1 constant region omitted] light: DVVMTQTPLPLPVSLGDQASISCRSSQSLIHSNGITYLHWYLQKPGQSPKLLIYKVSNRFSGVPDRFTGSGSGTDFTLKISRVEAEDLGVYFCSQSTHVPWTFGGGSKLEIRRTVAAPSVFIFPPSDEQLKSGTASVVCLLNNFYPREAKVQWKVDNALQSGNSQESVTEQDSKDSTYSLSSTLTLSKADYEKHKVYACEVTHQGLSSPVTKSFNRGEC | 392 | 0.0113 | 137 | 0.503 |  |  |
| 34A9C12-hIgG1 (antibody) heavy: QGQIQLVQSGPELKKSGETVKISCKASGFTNYGINWVKQAPGKGLKWMGWINPYSGVPTYADDFKGRFAFSLETSASTAYLQINNLKNEDSATYFCARDDGFHYTMDYWGQGTSVTVSS[human IgG1 constant region omitted] light: DVVLIQTPLSLPVSLGDQASISCRSSQNLVHSNGITYLHWYLQKPGQSPKLLIYKVSNRFSGVPDRFSGSGSGTDFTLKISRVEAEDLGVYFCSQSTLVPWTFGGGTKLEIKRTVAAPSVFIFPPSDEQLKSGTASVVCLLNNFYPREAKVQWKVDNALQSGNSQESVTEQDSKDSTYSLSSTLTLSKADYEKHKVYACEVTHQGLSSPVTKSFNRGEC |  |  | 257 | 0.269 | 1160 | 0.00341 |
| 37F11A10-hIgG1 (antibody) heavy: QIQLVQSGPELKKPGETVKISCKASGDTFRNYGMNWVKQAPGKGLKWMGWINPYSGVPTYADDFKGRFAFSLETSASTAFLQINNLKNEDTATYFCARDDGFHYTMDYWGLGTSVTVSS[human IgG1 constant region omitted] light: DVVMTQTPLSLPVSLGDQASISCRSSQSLLHSNGITYLHWYLQKPGQSPKLLTYKVSHRFSGVPDRFSGSGSGTDFTLKISRVEAEDLGVYFCSQSTHVPWTFGGGTKLEIRRTVAAPSVFIFPPSDEQLKSGTASVVCLLNNFYPREAKVQWKVDNALQSGNSQESVTEQDSKDSTYSLSSTLTLSKADYEKHKVYACEVTHQGLSSPVTKSFNRGEC |  |  | 193 | 0.357 | 1180 | 0.00334 |

target: human B7-H3 (human) (UniProt Q5ZPR3); test: cell-based or functional assay

| CDC % Relative activity (EC50 of positive control DS-5573a / EC50 of sample), plate 01 [%] | CDC % Relative activity (EC50 of positive control DS-5573a / EC50 of sample), plate 02 [%] | CDC EC50 (% target cell lysis, Cell Titer-Glo), plate 01 [µg/mL] | CDC EC50 (% target cell lysis, Cell Titer-Glo), plate 02 [µg/mL] | Binder |
| --- | --- | --- | --- | --- |
| 96.1 | 114 | 0.619 | 0.549 | 47F3F10B4-VH1-VL4 (antibody, human IgG1, kappa) heavy: QVQLVQSGAEVKKPGASVKVSCKASGYTFTDHYMHWVRQAPGQGLEWMGYIFPNNGVSGYNQNFKDRVTMTRDTSISTAYMELSRLRSDDTAVYYCARRQLGLGTMDYWGQGTLVTVSS[human IgG1 constant region omitted] light: DIQMTQSPSSLSASVGDRVTITCRASKSVSTSGYNYMHWYQQKPGKAPKLLIYLASNLESGVPSRFSGSGSGTDFTLTISSLQPEDFATYYCQHSKELPWTFGQGTKVEIKRTVAAPSVFIFPPSDEQLKSGTASVVCLLNNFYPREAKVQWKVDNALQSGNSQESVTEQDSKDSTYSLSSTLTLSKADYEKHKVYACEVTHQGLSSPVTKSFNRGEC |

target: human B7-H3 (human) (UniProt Q5ZPR3); test: flow cytometry (FACS) on CHO-K1 cells expressing human B7-H3; goat anti-human IgG (H+L) secondary

| EC50 [nM] | Binder |
| --- | --- |
| 0.888 | 47F3F10B4-VH1-VL4 (antibody, human IgG1, kappa) heavy: QVQLVQSGAEVKKPGASVKVSCKASGYTFTDHYMHWVRQAPGQGLEWMGYIFPNNGVSGYNQNFKDRVTMTRDTSISTAYMELSRLRSDDTAVYYCARRQLGLGTMDYWGQGTLVTVSS[human IgG1 constant region omitted] light: DIQMTQSPSSLSASVGDRVTITCRASKSVSTSGYNYMHWYQQKPGKAPKLLIYLASNLESGVPSRFSGSGSGTDFTLTISSLQPEDFATYYCQHSKELPWTFGQGTKVEIKRTVAAPSVFIFPPSDEQLKSGTASVVCLLNNFYPREAKVQWKVDNALQSGNSQESVTEQDSKDSTYSLSSTLTLSKADYEKHKVYACEVTHQGLSSPVTKSFNRGEC |
